According to the supplement of paper PMC7826260:
Some of the results follow. Cleavage of a single-stranded DNA pool by Rep nickase domains was read by sequencing (1 h at 37 °C, 3 µM enzyme); the outer parts of the 90-letter strands are left off. The score is log2 (uncut reads / reads without enzyme); uncut sequences lie near 0, cut ones below; no hit call is given. The scaling is to total reads, so uncut sequences can rise above 0 when many others are cut.

How the values were obtained:
Assay in all cases: uncleaved DNA left, log2 of reads against the no-enzyme library (log2 ratio); higher = less cleavage (more negative = more Rep cleavage of the k-mer); sequences stand for … in CTCGTCCG…ACCGGAGA
[1] = tested on: T1, Rep nickase domain of Muscovy duck circovirus
T1 sequence (protein, residues 1-111, tag omitted): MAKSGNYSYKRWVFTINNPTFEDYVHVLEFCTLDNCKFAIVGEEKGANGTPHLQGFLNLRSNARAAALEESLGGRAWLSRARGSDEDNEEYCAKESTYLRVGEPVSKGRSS
Description: (§1)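 A pool of 90-nt single-stranded DNAs with seven random bases just before the constant AC of the nick site (name = the seven bases) was cut by 3 µM recombinant His6-SUMO-tagged Rep nickase domain (300 nM DNA, 50 mM HEPES pH 8.0, 50 mM NaCl, 1 mM MnCl2, 1 h, 37 °C, three replicates). Uncut DNA was amplified and sequenced.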

[2] = tested on: T2, Rep nickase domain of banana bunchy top virus
T2 sequence (protein, residues 1-94, tag omitted): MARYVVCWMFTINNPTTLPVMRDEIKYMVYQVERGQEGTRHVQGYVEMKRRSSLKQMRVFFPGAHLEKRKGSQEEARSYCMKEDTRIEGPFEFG
Description: as §1

[3] = tested on: T3, Rep nickase domain of cabbage leaf curl virus
T3 sequence (protein, residues 1-116, tag omitted): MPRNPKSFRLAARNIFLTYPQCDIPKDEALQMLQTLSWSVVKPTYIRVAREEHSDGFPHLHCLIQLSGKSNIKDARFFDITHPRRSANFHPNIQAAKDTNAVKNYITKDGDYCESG
Description: as §1

[4] = tested on: T4, Rep nickase domain of chickpea chlorotic dwarf virus
T4 sequence (protein, residues 1-124, tag omitted): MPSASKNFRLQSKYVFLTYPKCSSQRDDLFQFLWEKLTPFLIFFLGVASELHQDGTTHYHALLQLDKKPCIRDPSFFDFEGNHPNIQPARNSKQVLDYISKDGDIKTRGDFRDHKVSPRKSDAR
Description: as §1

[5] = tested on: T5, Rep nickase domain of faba bean necrotic yellows virus
T5 sequence (protein, residues 1-98, tag omitted): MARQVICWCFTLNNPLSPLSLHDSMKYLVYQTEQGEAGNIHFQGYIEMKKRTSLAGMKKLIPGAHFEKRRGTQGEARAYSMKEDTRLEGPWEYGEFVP
Description: as §1

[6] = tested on: T6, Rep nickase domain of maize striate mosaic virus
T6 sequence (protein, residues 1-117, tag omitted): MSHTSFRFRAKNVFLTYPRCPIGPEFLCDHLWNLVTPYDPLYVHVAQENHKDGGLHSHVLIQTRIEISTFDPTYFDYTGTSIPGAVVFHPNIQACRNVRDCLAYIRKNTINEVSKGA
Description: as §1

[7] = tested on: T7, Rep nickase domain of porcine circovirus 2
T7 sequence (protein, residues 2-116, tag omitted): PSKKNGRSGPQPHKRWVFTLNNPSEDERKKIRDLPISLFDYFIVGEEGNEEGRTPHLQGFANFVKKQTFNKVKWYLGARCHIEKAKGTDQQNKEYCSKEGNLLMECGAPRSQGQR
Description: as §1

[8] = tested on: T8, Rep nickase domain of tomato yellow leaf curl virus
T8 sequence (protein, residues 1-136, tag omitted): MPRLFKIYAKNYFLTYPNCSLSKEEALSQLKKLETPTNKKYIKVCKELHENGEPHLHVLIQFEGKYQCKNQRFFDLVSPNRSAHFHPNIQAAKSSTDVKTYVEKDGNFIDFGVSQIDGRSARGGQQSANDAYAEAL
Description: as §1

[9] = tested on: T9, Rep nickase domain of wheat dwarf virus
T9 sequence (protein, residues 1-137, tag omitted): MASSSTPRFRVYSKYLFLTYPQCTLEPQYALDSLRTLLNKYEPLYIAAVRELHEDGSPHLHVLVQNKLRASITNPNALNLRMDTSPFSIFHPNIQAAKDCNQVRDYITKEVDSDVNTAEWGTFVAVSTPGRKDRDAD
Description: as §1

GTGAAAC
uncleaved DNA left (log2) [1]: -0.089
uncleaved DNA left (log2) [2]: 0.0366
uncleaved DNA left (log2) [3]: 0.275
uncleaved DNA left (log2) [4]: 0.897
uncleaved DNA left (log2) [5]: -0.0551
uncleaved DNA left (log2) [6]: 1.77
uncleaved DNA left (log2) [7]: 0.0289
uncleaved DNA left (log2) [8]: -0.0633
uncleaved DNA left (log2) [9]: -0.00656

AACCCTA
uncleaved DNA left (log2) [1]: 0.0388
uncleaved DNA left (log2) [2]: -0.0409
uncleaved DNA left (log2) [3]: 0.377
uncleaved DNA left (log2) [4]: -0.542
uncleaved DNA left (log2) [5]: 0.0563
uncleaved DNA left (log2) [6]: 0.598
uncleaved DNA left (log2) [7]: -0.259
uncleaved DNA left (log2) [8]: 0.0264
uncleaved DNA left (log2) [9]: 0.0555

CTGACAC
uncleaved DNA left (log2) [1]: 0.0334
uncleaved DNA left (log2) [2]: -0.0422
uncleaved DNA left (log2) [3]: -0.0062
uncleaved DNA left (log2) [4]: 0.305
uncleaved DNA left (log2) [5]: -0.000367
uncleaved DNA left (log2) [6]: -0.192
uncleaved DNA left (log2) [7]: 0.00728
uncleaved DNA left (log2) [8]: 0.0259
uncleaved DNA left (log2) [9]: 0.121

TAAGGCT
uncleaved DNA left (log2) [1]: 0.0949
uncleaved DNA left (log2) [2]: -0.0385
uncleaved DNA left (log2) [3]: -1.92
uncleaved DNA left (log2) [4]: -1.91
uncleaved DNA left (log2) [5]: -0.0626
uncleaved DNA left (log2) [6]: 0.861
uncleaved DNA left (log2) [7]: -0.0185
uncleaved DNA left (log2) [8]: -0.117
uncleaved DNA left (log2) [9]: -0.322

TGGGAGC
uncleaved DNA left (log2) [1]: 0.156
uncleaved DNA left (log2) [2]: 0.17
uncleaved DNA left (log2) [3]: 0.731
uncleaved DNA left (log2) [4]: 1.59
uncleaved DNA left (log2) [5]: 0.083
uncleaved DNA left (log2) [6]: 1.88
uncleaved DNA left (log2) [7]: 0.317
uncleaved DNA left (log2) [8]: 0.116
uncleaved DNA left (log2) [9]: 0.0882

AAGGACC
uncleaved DNA left (log2) [1]: 0.0321
uncleaved DNA left (log2) [2]: 0.0336
uncleaved DNA left (log2) [3]: 0.152
uncleaved DNA left (log2) [4]: 0.794
uncleaved DNA left (log2) [5]: -0.083
uncleaved DNA left (log2) [6]: 0.424
uncleaved DNA left (log2) [7]: 0.0748
uncleaved DNA left (log2) [8]: -0.0394
uncleaved DNA left (log2) [9]: 0.0778

GCGCGAA
uncleaved DNA left (log2) [1]: -0.0839
uncleaved DNA left (log2) [2]: -0.144
uncleaved DNA left (log2) [3]: -0.419
uncleaved DNA left (log2) [4]: -0.262
uncleaved DNA left (log2) [5]: -0.0845
uncleaved DNA left (log2) [6]: -0.527
uncleaved DNA left (log2) [7]: -0.0851
uncleaved DNA left (log2) [8]: -0.222
uncleaved DNA left (log2) [9]: -0.21

CGGCGCT
uncleaved DNA left (log2) [1]: -0.01
uncleaved DNA left (log2) [2]: -0.116
uncleaved DNA left (log2) [3]: -0.264
uncleaved DNA left (log2) [4]: -0.306
uncleaved DNA left (log2) [5]: -0.00511
uncleaved DNA left (log2) [6]: -0.311
uncleaved DNA left (log2) [7]: 0.0909
uncleaved DNA left (log2) [8]: -0.0963
uncleaved DNA left (log2) [9]: -0.0276

CGCTAGG
uncleaved DNA left (log2) [1]: 0.0891
uncleaved DNA left (log2) [2]: 0.0297
uncleaved DNA left (log2) [3]: 0.0617
uncleaved DNA left (log2) [4]: 0.808
uncleaved DNA left (log2) [5]: 0.228
uncleaved DNA left (log2) [6]: 0.386
uncleaved DNA left (log2) [7]: 0.197
uncleaved DNA left (log2) [8]: 0.124
uncleaved DNA left (log2) [9]: 0.121

ATACATA
uncleaved DNA left (log2) [1]: 0.0168
uncleaved DNA left (log2) [2]: 0.0454
uncleaved DNA left (log2) [3]: -0.145
uncleaved DNA left (log2) [4]: -1.08
uncleaved DNA left (log2) [5]: 0.0484
uncleaved DNA left (log2) [6]: -0.463
uncleaved DNA left (log2) [7]: -0.0358
uncleaved DNA left (log2) [8]: 0.0726
uncleaved DNA left (log2) [9]: 0.0944

AGATGGG
uncleaved DNA left (log2) [1]: 0.0842
uncleaved DNA left (log2) [2]: 0.108
uncleaved DNA left (log2) [3]: -0.481
uncleaved DNA left (log2) [4]: -0.597
uncleaved DNA left (log2) [5]: 0.0286
uncleaved DNA left (log2) [6]: -0.902
uncleaved DNA left (log2) [7]: 0.24
uncleaved DNA left (log2) [8]: 0.0586
uncleaved DNA left (log2) [9]: -0.159

TGGCGCC
uncleaved DNA left (log2) [1]: -0.0628
uncleaved DNA left (log2) [2]: -0.0324
uncleaved DNA left (log2) [3]: -0.152
uncleaved DNA left (log2) [4]: -0.303
uncleaved DNA left (log2) [5]: 0.0844
uncleaved DNA left (log2) [6]: -0.488
uncleaved DNA left (log2) [7]: -0.0523
uncleaved DNA left (log2) [8]: -0.1
uncleaved DNA left (log2) [9]: -0.0612

TGTCTGT
uncleaved DNA left (log2) [1]: 0.067
uncleaved DNA left (log2) [2]: 0.049
uncleaved DNA left (log2) [3]: 0.204
uncleaved DNA left (log2) [4]: 0.194
uncleaved DNA left (log2) [5]: 0.0219
uncleaved DNA left (log2) [6]: 0.434
uncleaved DNA left (log2) [7]: 0.0583
uncleaved DNA left (log2) [8]: 0.0723
uncleaved DNA left (log2) [9]: 0.0789

AGACAAA
uncleaved DNA left (log2) [1]: 0.0299
uncleaved DNA left (log2) [2]: 0.0745
uncleaved DNA left (log2) [3]: 0.653
uncleaved DNA left (log2) [4]: 1.36
uncleaved DNA left (log2) [5]: 0.1
uncleaved DNA left (log2) [6]: 1.41
uncleaved DNA left (log2) [7]: 0.149
uncleaved DNA left (log2) [8]: 0.0185
uncleaved DNA left (log2) [9]: 0.155

TTTCTTT
uncleaved DNA left (log2) [1]: -0.136
uncleaved DNA left (log2) [2]: -0.0513
uncleaved DNA left (log2) [3]: 0.0703
uncleaved DNA left (log2) [4]: -1.72
uncleaved DNA left (log2) [5]: 0.0498
uncleaved DNA left (log2) [6]: -0.39
uncleaved DNA left (log2) [7]: -0.686
uncleaved DNA left (log2) [8]: 0.0905
uncleaved DNA left (log2) [9]: -0.0354
